pIC50: −log10 of the molar value.
Columns and labels:
[1] = urinary excretion in DRF study; assay type: in vivo
Description: The potential for biliary excretion of RGX-202 has not been evaluated.

tumoral SLC6A8 = tumoral SLC6A8 (Mus musculus, UniProt Q8VBW1); assay: d3-creatine import into UN-KPC-961 tumors; conditions: 800 mg/kg in the diet for 35 days
3A = assay: CYP induction
OATP1B1 = OATP1B1 (Homo sapiens, UniProt Q9Y6L6); assay: SLC transporter inhibition
in vitro = conditions: plasma
CYP 2 C9 = CYP 2 C9 (Homo sapiens, UniProt P11712)
tumors = assay: cell death in tumors in vivo
OATP1B3 = OATP1B3 (Homo sapiens, UniProt Q9NPD5); assay: SLC transporter inhibition
rCYP2J2 = rCYP2J2 (Homo sapiens, UniProt P51589); assay: CYP substrate test
liver hepatocytes [2] = assay: hepatocyte metabolism; conditions: human
P-gp = P-gp (Homo sapiens, UniProt P08183); assay: ABC transporter inhibition
liver hepatocytes [3] = assay: hepatocyte metabolism; conditions: monkey
rCYP2E1 = rCYP2E1 (Homo sapiens, UniProt P05181); assay: CYP substrate test
rCYP2D6 = rCYP2D6 (Homo sapiens, UniProt P10635); assay: CYP substrate test
rCYP2C8 = rCYP2C8 (Homo sapiens, UniProt P10632); assay: CYP substrate test
OAT3 = OAT3 (Homo sapiens, UniProt Q8TCC7); assay: SLC transporter inhibition
solubility = assay type: physicochemical
liver hepatocytes [4] = assay: hepatocyte metabolism; conditions: rat
CYP 1A2 = CYP 1A2 (Homo sapiens, UniProt P05177); assay: biochemical
2B6 = assay: CYP induction
MATE1 = MATE1 (Homo sapiens, UniProt Q96FL8); assay: SLC transporter inhibition
1A2 = assay: CYP induction
CT26 murine CRC cells = assay: CT26 subcutaneous tumor growth in syngeneic BALB/c mice; assay type: in vivo, mouse; conditions: RGX-202 diet 800 mg/kg, 5-FU 50 mg/kg/week
[5] = test system: HCT-116 colon cancer cells; conditions: human
CYP 2E1 = CYP 2E1 (Homo sapiens, UniProt P05181); assay: biochemical
SLC6A8 = SLC6A8 (Mus musculus, UniProt Q8VBW1); assay: in vivo d3-creatine uptake into heart tissue, LC-MS/MS; conditions: ip, read-out: inhibition of tissue uptake of d3-creatine
OAT1 = OAT1 (Homo sapiens, UniProt Q4U2R8); assay: SLC transporter inhibition
rCYP2A6 = rCYP2A6 (Homo sapiens, UniProt P11509); assay: CYP substrate test
rCYP2A6, sequence (P11509 whole entry): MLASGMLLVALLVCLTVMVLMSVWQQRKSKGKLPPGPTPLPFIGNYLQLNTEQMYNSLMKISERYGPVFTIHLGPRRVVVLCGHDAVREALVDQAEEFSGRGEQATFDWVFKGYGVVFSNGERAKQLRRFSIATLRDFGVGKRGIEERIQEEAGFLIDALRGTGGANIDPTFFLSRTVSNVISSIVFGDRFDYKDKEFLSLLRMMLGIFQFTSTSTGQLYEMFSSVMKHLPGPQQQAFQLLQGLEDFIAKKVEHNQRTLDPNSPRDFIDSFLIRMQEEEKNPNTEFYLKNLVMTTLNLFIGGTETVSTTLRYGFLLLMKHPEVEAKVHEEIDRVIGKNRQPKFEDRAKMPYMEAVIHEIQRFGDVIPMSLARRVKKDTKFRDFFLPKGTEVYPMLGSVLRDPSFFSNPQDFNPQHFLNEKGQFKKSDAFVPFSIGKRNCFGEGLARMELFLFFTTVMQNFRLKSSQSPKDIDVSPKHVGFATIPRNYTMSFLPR

MATE1, sequence (Q96FL8 whole entry): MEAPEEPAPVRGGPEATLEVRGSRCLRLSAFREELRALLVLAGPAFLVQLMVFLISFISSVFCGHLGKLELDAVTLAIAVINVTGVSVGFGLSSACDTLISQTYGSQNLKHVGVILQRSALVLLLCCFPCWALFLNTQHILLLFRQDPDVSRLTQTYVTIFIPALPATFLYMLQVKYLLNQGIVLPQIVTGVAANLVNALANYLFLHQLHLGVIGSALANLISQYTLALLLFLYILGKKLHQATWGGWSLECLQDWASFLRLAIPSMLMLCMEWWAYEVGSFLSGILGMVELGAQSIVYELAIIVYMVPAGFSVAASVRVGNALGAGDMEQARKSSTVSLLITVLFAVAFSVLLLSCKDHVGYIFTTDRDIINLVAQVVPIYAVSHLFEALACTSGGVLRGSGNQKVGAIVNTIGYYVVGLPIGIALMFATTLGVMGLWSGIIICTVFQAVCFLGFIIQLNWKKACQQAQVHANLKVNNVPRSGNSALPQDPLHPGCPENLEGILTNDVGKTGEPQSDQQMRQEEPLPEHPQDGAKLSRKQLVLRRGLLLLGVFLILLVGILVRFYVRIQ
rCYP2D6, sequence (P10635 whole entry): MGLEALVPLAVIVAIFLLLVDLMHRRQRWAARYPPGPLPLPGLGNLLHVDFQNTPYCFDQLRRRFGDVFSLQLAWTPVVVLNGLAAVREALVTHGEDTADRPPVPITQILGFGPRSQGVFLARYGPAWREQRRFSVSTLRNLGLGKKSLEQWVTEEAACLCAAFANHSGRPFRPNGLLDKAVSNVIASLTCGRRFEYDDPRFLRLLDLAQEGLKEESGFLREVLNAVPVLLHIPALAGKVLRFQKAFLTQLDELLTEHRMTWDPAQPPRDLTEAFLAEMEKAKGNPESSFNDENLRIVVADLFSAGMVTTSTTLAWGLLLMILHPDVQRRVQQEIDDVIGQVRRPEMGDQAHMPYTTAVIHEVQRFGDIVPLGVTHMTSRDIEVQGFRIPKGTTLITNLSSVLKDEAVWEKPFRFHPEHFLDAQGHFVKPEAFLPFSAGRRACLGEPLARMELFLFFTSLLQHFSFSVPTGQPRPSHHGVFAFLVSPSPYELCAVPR
rCYP2J2, sequence (P51589 whole entry): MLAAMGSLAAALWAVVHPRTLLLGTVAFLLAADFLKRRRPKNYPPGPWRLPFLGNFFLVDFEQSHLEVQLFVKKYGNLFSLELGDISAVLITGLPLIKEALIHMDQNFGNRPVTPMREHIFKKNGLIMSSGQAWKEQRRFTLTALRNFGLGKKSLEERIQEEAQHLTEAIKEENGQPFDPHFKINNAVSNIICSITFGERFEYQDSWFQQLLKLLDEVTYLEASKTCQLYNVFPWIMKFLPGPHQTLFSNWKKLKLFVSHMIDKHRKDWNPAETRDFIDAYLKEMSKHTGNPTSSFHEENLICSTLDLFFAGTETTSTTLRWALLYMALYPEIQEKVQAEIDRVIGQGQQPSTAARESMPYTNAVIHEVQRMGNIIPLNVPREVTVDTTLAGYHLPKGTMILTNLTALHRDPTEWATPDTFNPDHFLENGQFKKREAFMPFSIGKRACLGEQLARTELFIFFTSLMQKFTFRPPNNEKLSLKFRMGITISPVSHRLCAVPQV
rCYP2C8, sequence (P10632 whole entry): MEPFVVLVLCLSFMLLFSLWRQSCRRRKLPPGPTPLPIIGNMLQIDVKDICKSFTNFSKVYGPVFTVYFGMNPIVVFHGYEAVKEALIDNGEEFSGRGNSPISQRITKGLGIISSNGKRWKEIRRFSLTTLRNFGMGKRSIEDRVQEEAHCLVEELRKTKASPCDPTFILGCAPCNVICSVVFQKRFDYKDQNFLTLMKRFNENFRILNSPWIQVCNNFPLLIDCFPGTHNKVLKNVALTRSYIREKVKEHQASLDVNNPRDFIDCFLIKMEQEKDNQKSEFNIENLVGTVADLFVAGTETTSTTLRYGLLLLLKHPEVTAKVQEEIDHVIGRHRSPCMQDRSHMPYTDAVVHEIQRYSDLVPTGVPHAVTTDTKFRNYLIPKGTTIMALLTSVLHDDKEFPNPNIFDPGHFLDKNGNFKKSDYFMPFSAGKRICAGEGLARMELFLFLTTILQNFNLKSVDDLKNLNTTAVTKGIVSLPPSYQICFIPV
CYP 2 C9, sequence (P11712 whole entry): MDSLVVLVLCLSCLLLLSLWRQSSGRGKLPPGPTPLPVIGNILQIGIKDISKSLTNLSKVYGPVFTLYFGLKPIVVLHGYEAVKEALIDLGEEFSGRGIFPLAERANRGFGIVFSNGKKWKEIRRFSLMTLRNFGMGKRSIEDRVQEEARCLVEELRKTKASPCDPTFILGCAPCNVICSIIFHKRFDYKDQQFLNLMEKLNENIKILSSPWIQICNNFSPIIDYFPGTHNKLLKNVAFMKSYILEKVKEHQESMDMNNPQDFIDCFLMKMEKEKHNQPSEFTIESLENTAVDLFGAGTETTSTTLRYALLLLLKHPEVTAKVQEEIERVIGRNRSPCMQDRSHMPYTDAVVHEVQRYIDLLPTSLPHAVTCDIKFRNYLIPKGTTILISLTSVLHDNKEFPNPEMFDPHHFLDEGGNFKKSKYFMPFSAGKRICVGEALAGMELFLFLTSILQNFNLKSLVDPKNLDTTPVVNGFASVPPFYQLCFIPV
OATP1B1, sequence (Q9Y6L6 whole entry): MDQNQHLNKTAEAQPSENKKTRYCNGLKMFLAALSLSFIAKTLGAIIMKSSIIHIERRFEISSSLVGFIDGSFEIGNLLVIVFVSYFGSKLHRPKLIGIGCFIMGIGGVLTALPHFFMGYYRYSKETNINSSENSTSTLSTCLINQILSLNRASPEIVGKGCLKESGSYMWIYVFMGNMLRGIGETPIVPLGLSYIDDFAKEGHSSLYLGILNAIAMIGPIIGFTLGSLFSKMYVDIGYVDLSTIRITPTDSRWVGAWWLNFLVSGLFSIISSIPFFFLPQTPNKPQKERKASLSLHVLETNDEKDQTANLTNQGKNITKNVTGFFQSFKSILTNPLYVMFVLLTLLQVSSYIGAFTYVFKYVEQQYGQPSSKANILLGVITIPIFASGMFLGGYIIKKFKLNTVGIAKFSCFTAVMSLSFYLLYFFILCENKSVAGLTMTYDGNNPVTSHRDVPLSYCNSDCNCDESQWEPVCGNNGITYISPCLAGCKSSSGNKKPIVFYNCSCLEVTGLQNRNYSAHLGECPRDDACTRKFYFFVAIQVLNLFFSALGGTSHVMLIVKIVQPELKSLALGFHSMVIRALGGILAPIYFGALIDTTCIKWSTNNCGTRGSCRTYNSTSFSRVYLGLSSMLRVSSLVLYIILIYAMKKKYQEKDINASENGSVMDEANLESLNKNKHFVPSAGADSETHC
OAT1, sequence (Q4U2R8 whole entry): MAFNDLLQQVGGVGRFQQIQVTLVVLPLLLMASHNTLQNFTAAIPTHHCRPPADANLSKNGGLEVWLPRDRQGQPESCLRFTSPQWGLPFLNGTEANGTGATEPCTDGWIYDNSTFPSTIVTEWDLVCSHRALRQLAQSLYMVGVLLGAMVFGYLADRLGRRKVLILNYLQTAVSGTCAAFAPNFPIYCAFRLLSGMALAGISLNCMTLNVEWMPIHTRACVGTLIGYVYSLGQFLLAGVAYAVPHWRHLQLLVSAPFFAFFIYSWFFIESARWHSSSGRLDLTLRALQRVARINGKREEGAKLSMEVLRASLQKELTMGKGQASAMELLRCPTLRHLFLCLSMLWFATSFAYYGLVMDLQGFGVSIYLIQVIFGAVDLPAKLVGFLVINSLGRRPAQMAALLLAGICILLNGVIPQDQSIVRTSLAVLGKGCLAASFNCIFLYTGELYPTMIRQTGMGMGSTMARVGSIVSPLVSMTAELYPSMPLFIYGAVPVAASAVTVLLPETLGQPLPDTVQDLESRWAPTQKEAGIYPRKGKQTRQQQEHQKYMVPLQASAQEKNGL
CYP 1A2, sequence (P05177 whole entry): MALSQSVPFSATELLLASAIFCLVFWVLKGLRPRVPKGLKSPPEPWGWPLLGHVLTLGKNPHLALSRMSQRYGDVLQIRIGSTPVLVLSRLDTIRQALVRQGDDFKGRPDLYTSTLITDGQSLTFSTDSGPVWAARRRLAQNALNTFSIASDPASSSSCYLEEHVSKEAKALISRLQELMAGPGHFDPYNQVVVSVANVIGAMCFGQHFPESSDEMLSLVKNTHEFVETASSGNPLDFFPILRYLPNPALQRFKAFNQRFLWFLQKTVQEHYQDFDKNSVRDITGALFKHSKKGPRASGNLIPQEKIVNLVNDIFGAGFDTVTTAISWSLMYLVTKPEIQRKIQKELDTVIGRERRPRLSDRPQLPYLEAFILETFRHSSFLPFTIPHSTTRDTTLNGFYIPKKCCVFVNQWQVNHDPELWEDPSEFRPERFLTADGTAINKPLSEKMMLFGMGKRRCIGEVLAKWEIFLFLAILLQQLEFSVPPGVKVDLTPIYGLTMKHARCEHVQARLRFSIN

N=C(N)NCCC(=O)O [RGX-202, β-Guanidinoproprionic acid]
amount found in the urine ([1]; dog): significant amounts
amount found in the urine ([1]; rat): significant amounts
suppression of tumoral d3-creatine import (tumoral SLC6A8): 50%
induction of 3A (3A): no induction
inhibitor of OATP1B1 (OATP1B1): not an inhibitor
fraction unbound (in vitro): 0.604 to 0.685
pIC50 (CYP 2 C9): < 4.00
induced cell death in tumors in vivo (tumors): 5-15 fold
inhibitor of OATP1B3 (OATP1B3): not an inhibitor
substrate of rCYP2J2 (rCYP2J2): not a substrate
metabolism by hepatocytes (liver hepatocytes [2]): not metabolized
inhibitor of P-gp (P-gp): not an inhibitor
metabolism by hepatocytes (liver hepatocytes [3]): not metabolized
substrate of rCYP2E1 (rCYP2E1): not a substrate
substrate of rCYP2D6 (rCYP2D6): not a substrate
substrate of rCYP2C8 (rCYP2C8): not a substrate
inhibitor of OAT3 (OAT3): not an inhibitor
solubility in organic solvents (solubility): low solubility
solubility (solubility; water): > 50 mg/mL
metabolism by hepatocytes (liver hepatocytes [4]): not metabolized
pIC50 (CYP 1A2): < 4.00
induction of 2B6 (2B6): no induction
induced cell death in colon cancer cells in vitro (colon cancer cells): ~7 fold
reduced cell viability in vitro (colon cancer cells): 15-60%
inhibitor of MATE1 (MATE1): not an inhibitor
induction of 1A2 (1A2): no induction
tumor growth inhibition (CT26 murine CRC cells): 66%
reduction of cell viability [5]: 15-35%
pIC50 (CYP 2E1): < 4.00
inhibition at 500 mg/kg (SLC6A8): ≤ 75%
inhibitor of OAT1 (OAT1): not an inhibitor
substrate of rCYP2A6 (rCYP2A6): not a substrate

From patent US20240180912A1, “COMPOSITIONS AND METHODS FOR INHIBITING CREATINE TRANSPORT AS A TREATMENT FOR CANCER” (Inspirna, Inc., priority 2021, published 2024)
